From PubChem BioAssay AID493208 (National Center for Advancing Translational Sciences (NCATS), 2011) come the findings set out here.

Among all 44,000 compounds or so, about 340 (0.77%) were called active. Roughly 5% stayed inconclusive and do not appear here. Calls come from the whole dose curve; as a rule, active = well fitted inhibition curve with a large enough effect; inconclusive = small, poorly fitted or top-dose-only effect; inactive = flat fitted curve, though single readings scatter. This is one part of the list.
Potency is the fitted concentration of half-maximal effect.

The assay can be described thus: Acumen qHTS Assay for Inhibitors of the mTORC1 Signaling Pathway in MEF (Tsc2-/-, p53-/-) Cells: Sytravon.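 For activity change, negative = inhibition: plate controls were DMSO for no effect and rapamycin for full effect.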 Note: nearly all actives have a fitted effect of over 50% in size. Particulars: phospho-rpS6 immunofluorescence/PI, 24 h; series mostly up to 38.3 µM; activity change, negative = inhibition: at the top concentration. A digest of the protocol:
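Tsc2-/-, p53-/- MEFs (empty-vector stable line) in DMEM + 10% FBS were treated with compounds 24 h at 37 degree Celsius, fixed, and immunostained for phospho-rpS6 (Alexa-488) with propidium iodide counterstain. Laser-scanning cytometry gave % positive cells, normalized against 7.5 nM rapamycin and DMSO.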
As to `COc1ccc(C(=O)CC2(O)C(=O)Nc3c(C)cccc32)c(OC)c1OC` (configuration not stated), the “activity change, negative = inhibition” value is inactive: -18.5%. The same measure, in the same setting: next, `CN1CCN(c2ncc3c(n2)CCN(Cc2cc(Br)cs2)C3)CC1`: inactive: 0%. As to `CCOc1ccc(-c2cnc(NCc3ccc(C(F)(F)F)cc3)n2C)cc1`, the Potency is active: 18.5 µM. With `Cc1cccc(N2CCN(C(=O)c3cc4c(=O)oc5ccccc5c4s3)CC2C)c1` (configuration not stated), the “activity change, negative = inhibition” value is inactive: 16%. Consider `CC(C)CN(CC(C)C)C(=O)C1CCCN(S(=O)(=O)c2ccc3c(c2)oc(=O)n3C)C1` (configuration not stated), for which the “activity change, negative = inhibition” value was inactive: -1.51%. The same measure, in the same setting: next, `COc1cccc(NC(=O)c2nn(-c3ccc(C)cc3)c(=O)n(C)c2=O)c1`: inactive: -10.3%.

`Cc1cc(C)c2nc(N3CCCC(C(=O)NCc4cccc(Cl)c4)C3)sc2c1` (configuration not stated): the “activity change, negative = inhibition” value is inactive: -0.294%. As to `COc1ccc(CNS(=O)(=O)c2cc3c(cc2C)n(C)c(=O)c(=O)n3C)cc1`, the “activity change, negative = inhibition” value is inactive: -15.2%. The same measure, in the same setting: next, `Cc1ccc(NS(=O)(=O)c2ccc3c(c2)NC(=O)C(C)C(=O)N3)cc1F` (configuration not stated): inactive: 1.69%; `Cc1ccc(NC(=O)CSc2cc(=O)n(C)c3ccc(Cl)cc23)c(Br)c1`: inactive: -2.68%; `CC(NC(=O)c1ccc2c(c1)N(Cc1cccc(F)c1)C(=O)c1ccccc1S2)c1ccccc1` (configuration not stated): inactive: -12.2%. Same read-out and setting: next, `CCCCN(C)CCNC(=O)c1c(C)oc2ncnc(N3CCOCC3)c12`: inactive: -5.9%; `Cc1ccc(NC(=O)c2cnn(-c3ccc(C)c(C)c3)c2C2CCN(C(=O)OC(C)(C)C)CC2)c(C)c1`: inactive: -2.51%.

In the case of `Cc1cccc(NC(=O)Cn2c(=O)n(CCC(C)C)c(=O)c3cccnc32)c1`, the “activity change, negative = inhibition” value is inactive: 0.544%.

With `Cc1ccc(-n2nc(C(=O)N3CCN(c4cccc(C(F)(F)F)c4)CC3)c(=O)n(C)c2=O)cc1`, the “activity change, negative = inhibition” value was inactive: -6.41%. For the compound `COc1cc(NC(=O)CN2C(=O)C(c3ccc(C)cc3)=NC23CCCCC3)cc(OC)c1`, the “activity change, negative = inhibition” value was inactive: -3.92%.

Regarding `Cc1oc2ccc(O)c(CN3CCOCC3)c2c1C(=O)Nc1ccccc1`, the “activity change, negative = inhibition” value is inactive: -1.19%. Same read-out and setting: next, `Cc1ccc(CNc2ccc(-c3nc(C(C)C)no3)cc2[N+](=O)[O-])cc1`: inactive: 1.81%; `Cc1ccc(-n2c(=O)c3c(c4cc(C)ccc4n3C)n(CC(=O)Nc3c(C)cccc3C)c2=O)cc1`: inactive: -6.15%; `O=C(CCSCCc1ccccn1)Nc1cc(F)ccc1F`: inactive: 5.33%. Same read-out and setting: the result for `CCC(CC)C(=O)Nc1cc(-c2cccc(C)c2)nn1-c1ccccc1` reads inactive: 7.15%; that for `COc1cccc(CNC(=O)C2CCN(C(=O)N3CCOc4ccc(Cl)cc43)CC2)c1OC`, inactive: -21.9%; that for `COc1ccc(Cl)cc1NC(=O)c1cc(C)nc2c1c(C)nn2-c1ccccc1`, inactive: -3.31%. On the same count and under the same terms, the result for `O=c1c2sc3ccccc3c2n(Cc2ccccc2F)c(=O)n1Cc1ccccc1` reads inactive: -17.7%; that for `Cc1ccc(Cn2c(=O)n(Cc3ccco3)c(=O)c3sc4ccccc4c32)cc1`, inactive: 0.556%; that for `O=c1c2cnn(-c3ccc(Cl)cc3)c2ncn1Cc1ccc(Cl)cc1Cl`, inactive: -2.62%. Turning to `Cc1nc2c(C(=O)NCc3ccccc3)cnn2c(C)c1Cc1ccc(F)cc1`, the “activity change, negative = inhibition” value is inactive: 9.48%. Still for that read-out and setting: next, `Cc1cccc(C(=O)Nc2cc3c(cc2N2CCCCC2)n(C)c(=O)c(=O)n3C)c1`: inactive: -0.156%.

Turning to `CC(=O)N1CCC2(CC1)OC(=O)C(C)=C2C(=O)Nc1cccc(Cl)c1C`, the “activity change, negative = inhibition” value is inactive: 0.677%.

As to `CCCCC(=O)Nc1cc(C)c(O)c(-c2nc3ncccc3o2)c1`, the “activity change, negative = inhibition” value is inactive: 7.16%. As to `O=C(CC1N=C2c3ccccc3N=C(SCc3ccccc3F)N2C1=O)NCCc1ccccc1` (configuration not stated), the “activity change, negative = inhibition” value was inactive: -3.16%. Same read-out and setting: the result for `Cc1ccc(CCNC(=O)CCN2N=C(c3ccc(C)cc3)CCC2=O)cc1` reads inactive: -6.49%; that for `CCOc1ccc(C(=O)Nc2cc(NC(=O)c3ccco3)ccc2OC)cc1Br`, inactive: -7.79%; that for `Cc1ccc(Cl)cc1Nc1nc2ccccc2c2nncn12`, inactive: -18.7%. The same measure, in the same setting: the result for `Cc1ccsc1CCN1C(=O)N(c2ccccc2)C(=O)C1CC(=O)Nc1ccc(F)cc1` (configuration not stated) reads inactive: -2.55%; that for `COc1ccc(CCC(=O)NCc2ccc3c(c2)CCN3C(=O)c2ccc(F)cc2)cc1`, inactive: 1.38%.

`COc1ccc(-c2nc3cc(NC(=O)Cc4ccc(Cl)cc4)ccc3o2)cc1OC`: the Potency was active: 4.14 µM. Consider `CCOC(=O)c1ccc(NC(=O)Cn2nc(SC)c(S(=O)(=O)c3ccc(Cl)cc3)c2N)cc1`, for which the “activity change, negative = inhibition” value was inactive: -3.26%. The same measure, in the same setting: next, `CC(C)CC(=O)Nc1nnc(S(=O)(=O)N2CCCCCC2)s1`: inactive: -13.8%. Turning to `Cc1cccc(C)c1NC(=O)c1ccc2c(c1)N(Cc1cccc(Cl)c1)C(=O)c1ccccc1S2=O` (configuration not stated), the “activity change, negative = inhibition” value is inactive: -14.3%. Take `Cc1ccc(C(=O)N(Cc2sccc2C)C2CCS(=O)(=O)C2)cc1` (configuration not stated): the “activity change, negative = inhibition” value was inactive: -2.64%. With `COc1ccc(OC)c(-n2nnc3c(sc4nc(C)c(Br)c(C)c43)c2=O)c1`, the “activity change, negative = inhibition” value was inactive: 0.814%. Still for that read-out and setting: next, `COc1ccccc1NC(=O)N1c2ccccc2Sc2ccccc21`: inactive: -25.1%; `CCOc1cc(Br)cc(C2NC(=O)c3c(sc4c3CCN(C)C4)N2)c1O` (configuration not stated): inactive: -0.389%. Regarding `COCCCNC(=O)CCCn1c(SCC(=O)c2ccc(F)cc2)nc2c(sc3ccccc32)c1=O`, the “activity change, negative = inhibition” value is inactive: 5.07%.

Regarding `COc1ccc(CNC(=O)CSc2ncc3c(n2)-c2ccc(Cl)cc2N(Cc2ccc(F)cc2)S3(=O)=O)cc1OC`, the “activity change, negative = inhibition” value is inactive: -16.1%. Consider `O=C(CSc1c2c(nc3ccccc13)CCC2)Nc1ccc(F)cc1`, for which the “activity change, negative = inhibition” value is inactive: -22.3%.
